Here are results for seven molecules from publication PMC6637153.

No constants are given. Whether binding was seen depends on the method and setting. In cells and extracts the contact can be indirect. Some entries that bind do so weakly or less than the wild type. Where a sequence is shown, tags or fusion partners need not be part of it.

In assay [1] the target is T1, GST fusion protein of the third intracellular loop (ICL3, 205-369 residues) of α2B-adrenergic receptor (UniProt P19328).
T1 sequence: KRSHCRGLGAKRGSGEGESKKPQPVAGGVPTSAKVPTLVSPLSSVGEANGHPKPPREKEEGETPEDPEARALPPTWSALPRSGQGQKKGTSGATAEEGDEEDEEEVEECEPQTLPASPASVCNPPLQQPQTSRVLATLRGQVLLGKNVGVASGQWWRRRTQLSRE
Briefly: pull-down; GST fusion proteins tethered to glutathione resin incubated with total cell lysates of transfected HEK293 cells; 20 mM Tris-HCl pH 7.5, 1% NP-40, 140 mM NaCl, 1 mM MgCl2, 4 °C, 4-6 h; blot with anti-GFP or anti-myc; only the target purified.

Assay [2] deals with T2, myc-tagged GGA1 (UniProt Q9UJY5).
T2 sequence: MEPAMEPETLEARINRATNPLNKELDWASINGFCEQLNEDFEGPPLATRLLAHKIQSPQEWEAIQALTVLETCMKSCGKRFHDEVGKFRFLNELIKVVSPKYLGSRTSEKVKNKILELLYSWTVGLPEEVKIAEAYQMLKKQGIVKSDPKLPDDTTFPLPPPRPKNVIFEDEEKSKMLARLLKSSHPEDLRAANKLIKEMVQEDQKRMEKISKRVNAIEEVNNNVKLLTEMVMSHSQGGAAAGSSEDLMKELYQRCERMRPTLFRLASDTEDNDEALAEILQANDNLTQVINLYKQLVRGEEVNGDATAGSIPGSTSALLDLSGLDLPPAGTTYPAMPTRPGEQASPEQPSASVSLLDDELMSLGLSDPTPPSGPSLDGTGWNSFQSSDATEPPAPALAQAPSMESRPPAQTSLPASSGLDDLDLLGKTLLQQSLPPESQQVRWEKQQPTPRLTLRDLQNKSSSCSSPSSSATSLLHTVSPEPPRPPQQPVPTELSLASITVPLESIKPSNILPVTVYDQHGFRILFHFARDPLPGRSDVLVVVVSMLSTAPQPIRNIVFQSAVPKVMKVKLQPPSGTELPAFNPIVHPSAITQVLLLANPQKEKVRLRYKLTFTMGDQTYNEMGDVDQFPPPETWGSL
The assay can be described thus: co-IP; HEK293 cells co-transfected with Myc-GGA1 and pEGFP-C1, GFP-GGA1 or GFP-GGA1t for 48 h; lysis buffer 50 mM Tris-HCl pH 7.4, 140 mM NaCl, 1% Nonidet P-40; IP with anti-Myc antibodies and Dynabeads protein G at 4 °C; blot with anti-GFP.

Assay [3] deals with T3, Rluc8-GGA1 (UniProt Q9UJY5).
T3 sequence: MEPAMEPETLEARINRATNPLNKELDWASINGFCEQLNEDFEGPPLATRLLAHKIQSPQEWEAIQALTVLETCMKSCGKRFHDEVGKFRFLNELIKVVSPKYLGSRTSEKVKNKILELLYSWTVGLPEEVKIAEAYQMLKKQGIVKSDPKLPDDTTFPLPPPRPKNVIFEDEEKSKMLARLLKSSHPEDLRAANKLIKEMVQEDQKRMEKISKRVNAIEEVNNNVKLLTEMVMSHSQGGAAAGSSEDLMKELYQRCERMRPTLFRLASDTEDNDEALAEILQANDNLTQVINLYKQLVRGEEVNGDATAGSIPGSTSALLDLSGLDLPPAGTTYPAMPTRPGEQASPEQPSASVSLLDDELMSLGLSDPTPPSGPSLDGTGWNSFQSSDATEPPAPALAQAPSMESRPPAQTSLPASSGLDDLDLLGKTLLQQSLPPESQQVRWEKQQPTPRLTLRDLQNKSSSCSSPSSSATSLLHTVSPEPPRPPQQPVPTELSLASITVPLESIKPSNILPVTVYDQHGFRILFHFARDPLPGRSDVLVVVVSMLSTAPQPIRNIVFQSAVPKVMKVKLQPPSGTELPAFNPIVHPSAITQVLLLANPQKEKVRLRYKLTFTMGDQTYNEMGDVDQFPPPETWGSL
The assay can be described thus: FRET or BRET; live HEK293 cells transfected with 0.1 μg GGA-Rluc8 and 1.5 μg GGA-Venus for 24 h; coelenterazine h; net BRET.

In assay [4] the target is T4, Rluc8-GGA1t (human (cDNA cloned from HEK293 cells)) (UniProt Q9UJY5).
T4 sequence: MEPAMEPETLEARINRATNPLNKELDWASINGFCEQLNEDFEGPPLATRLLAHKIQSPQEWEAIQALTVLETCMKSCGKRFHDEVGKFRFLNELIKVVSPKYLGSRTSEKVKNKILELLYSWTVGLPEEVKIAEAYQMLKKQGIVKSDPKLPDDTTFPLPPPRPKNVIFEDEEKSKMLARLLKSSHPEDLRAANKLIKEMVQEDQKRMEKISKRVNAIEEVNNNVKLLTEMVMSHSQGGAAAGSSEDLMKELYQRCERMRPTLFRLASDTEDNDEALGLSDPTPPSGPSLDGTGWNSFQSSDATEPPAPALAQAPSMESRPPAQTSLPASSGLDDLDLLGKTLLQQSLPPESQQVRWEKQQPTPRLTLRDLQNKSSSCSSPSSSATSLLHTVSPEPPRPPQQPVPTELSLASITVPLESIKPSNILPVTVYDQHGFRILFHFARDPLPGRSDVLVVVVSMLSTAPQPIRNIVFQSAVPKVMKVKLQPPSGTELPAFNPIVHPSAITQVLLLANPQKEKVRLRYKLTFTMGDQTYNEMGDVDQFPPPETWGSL
The assay is described as above.

B1: GFP-tagged GGA1 hinge domain (303-513 residues) (domain or fragment, UniProt Q9UJY5 303-513)
chain: VNGDATAGSIPGSTSALLDLSGLDLPPAGTTYPAMPTRPGEQASPEQPSASVSLLDDELMSLGLSDPTPPSGPSLDGTGWNSFQSSDATEPPAPALAQAPSMESRPPAQTSLPASSGLDDLDLLGKTLLQQSLPPESQQVRWEKQQPTPRLTLRDLQNKSSSCSSPSSSATSLLHTVSPEPPRPPQQPVPTELSLASITVPLESIKPSNIL
In the case of B1, the binding entry in assay [1] is reported as “binds”.

B2: GFP-tagged GGA1t (protein, UniProt Q9UJY5)
chain: MEPAMEPETLEARINRATNPLNKELDWASINGFCEQLNEDFEGPPLATRLLAHKIQSPQEWEAIQALTVLETCMKSCGKRFHDEVGKFRFLNELIKVVSPKYLGSRTSEKVKNKILELLYSWTVGLPEEVKIAEAYQMLKKQGIVKSDPKLPDDTTFPLPPPRPKNVIFEDEEKSKMLARLLKSSHPEDLRAANKLIKEMVQEDQKRMEKISKRVNAIEEVNNNVKLLTEMVMSHSQGGAAAGSSEDLMKELYQRCERMRPTLFRLASDTEDNDEALGLSDPTPPSGPSLDGTGWNSFQSSDATEPPAPALAQAPSMESRPPAQTSLPASSGLDDLDLLGKTLLQQSLPPESQQVRWEKQQPTPRLTLRDLQNKSSSCSSPSSSATSLLHTVSPEPPRPPQQPVPTELSLASITVPLESIKPSNILPVTVYDQHGFRILFHFARDPLPGRSDVLVVVVSMLSTAPQPIRNIVFQSAVPKVMKVKLQPPSGTELPAFNPIVHPSAITQVLLLANPQKEKVRLRYKLTFTMGDQTYNEMGDVDQFPPPETWGSL
Regarding B2, in assay [2], the binding result is listed as “binds”.

B3: venus-GGA1t (protein, UniProt Q9UJY5)
chain: MEPAMEPETLEARINRATNPLNKELDWASINGFCEQLNEDFEGPPLATRLLAHKIQSPQEWEAIQALTVLETCMKSCGKRFHDEVGKFRFLNELIKVVSPKYLGSRTSEKVKNKILELLYSWTVGLPEEVKIAEAYQMLKKQGIVKSDPKLPDDTTFPLPPPRPKNVIFEDEEKSKMLARLLKSSHPEDLRAANKLIKEMVQEDQKRMEKISKRVNAIEEVNNNVKLLTEMVMSHSQGGAAAGSSEDLMKELYQRCERMRPTLFRLASDTEDNDEALGLSDPTPPSGPSLDGTGWNSFQSSDATEPPAPALAQAPSMESRPPAQTSLPASSGLDDLDLLGKTLLQQSLPPESQQVRWEKQQPTPRLTLRDLQNKSSSCSSPSSSATSLLHTVSPEPPRPPQQPVPTELSLASITVPLESIKPSNILPVTVYDQHGFRILFHFARDPLPGRSDVLVVVVSMLSTAPQPIRNIVFQSAVPKVMKVKLQPPSGTELPAFNPIVHPSAITQVLLLANPQKEKVRLRYKLTFTMGDQTYNEMGDVDQFPPPETWGSL
With B3, the binding entry in assay [3] and in assay [4] was “binds” each time.

B4: myc-tagged GGA1t (protein, UniProt Q9UJY5)
chain: MEPAMEPETLEARINRATNPLNKELDWASINGFCEQLNEDFEGPPLATRLLAHKIQSPQEWEAIQALTVLETCMKSCGKRFHDEVGKFRFLNELIKVVSPKYLGSRTSEKVKNKILELLYSWTVGLPEEVKIAEAYQMLKKQGIVKSDPKLPDDTTFPLPPPRPKNVIFEDEEKSKMLARLLKSSHPEDLRAANKLIKEMVQEDQKRMEKISKRVNAIEEVNNNVKLLTEMVMSHSQGGAAAGSSEDLMKELYQRCERMRPTLFRLASDTEDNDEALGLSDPTPPSGPSLDGTGWNSFQSSDATEPPAPALAQAPSMESRPPAQTSLPASSGLDDLDLLGKTLLQQSLPPESQQVRWEKQQPTPRLTLRDLQNKSSSCSSPSSSATSLLHTVSPEPPRPPQQPVPTELSLASITVPLESIKPSNILPVTVYDQHGFRILFHFARDPLPGRSDVLVVVVSMLSTAPQPIRNIVFQSAVPKVMKVKLQPPSGTELPAFNPIVHPSAITQVLLLANPQKEKVRLRYKLTFTMGDQTYNEMGDVDQFPPPETWGSL
For the molecule B4, in assay [1], the binding entry is listed as “no binding”.

B5: GFP-tagged GGA1 (protein, UniProt Q9UJY5 1-639)
chain: MEPAMEPETLEARINRATNPLNKELDWASINGFCEQLNEDFEGPPLATRLLAHKIQSPQEWEAIQALTVLETCMKSCGKRFHDEVGKFRFLNELIKVVSPKYLGSRTSEKVKNKILELLYSWTVGLPEEVKIAEAYQMLKKQGIVKSDPKLPDDTTFPLPPPRPKNVIFEDEEKSKMLARLLKSSHPEDLRAANKLIKEMVQEDQKRMEKISKRVNAIEEVNNNVKLLTEMVMSHSQGGAAAGSSEDLMKELYQRCERMRPTLFRLASDTEDNDEALAEILQANDNLTQVINLYKQLVRGEEVNGDATAGSIPGSTSALLDLSGLDLPPAGTTYPAMPTRPGEQASPEQPSASVSLLDDELMSLGLSDPTPPSGPSLDGTGWNSFQSSDATEPPAPALAQAPSMESRPPAQTSLPASSGLDDLDLLGKTLLQQSLPPESQQVRWEKQQPTPRLTLRDLQNKSSSCSSPSSSATSLLHTVSPEPPRPPQQPVPTELSLASITVPLESIKPSNILPVTVYDQHGFRILFHFARDPLPGRSDVLVVVVSMLSTAPQPIRNIVFQSAVPKVMKVKLQPPSGTELPAFNPIVHPSAITQVLLLANPQKEKVRLRYKLTFTMGDQTYNEMGDVDQFPPPETWGSL
As for B5, in assay [2], the binding entry is “binds”.

B6: myc-tagged GGA1 (protein, UniProt Q9UJY5 1-639)
chain: MEPAMEPETLEARINRATNPLNKELDWASINGFCEQLNEDFEGPPLATRLLAHKIQSPQEWEAIQALTVLETCMKSCGKRFHDEVGKFRFLNELIKVVSPKYLGSRTSEKVKNKILELLYSWTVGLPEEVKIAEAYQMLKKQGIVKSDPKLPDDTTFPLPPPRPKNVIFEDEEKSKMLARLLKSSHPEDLRAANKLIKEMVQEDQKRMEKISKRVNAIEEVNNNVKLLTEMVMSHSQGGAAAGSSEDLMKELYQRCERMRPTLFRLASDTEDNDEALAEILQANDNLTQVINLYKQLVRGEEVNGDATAGSIPGSTSALLDLSGLDLPPAGTTYPAMPTRPGEQASPEQPSASVSLLDDELMSLGLSDPTPPSGPSLDGTGWNSFQSSDATEPPAPALAQAPSMESRPPAQTSLPASSGLDDLDLLGKTLLQQSLPPESQQVRWEKQQPTPRLTLRDLQNKSSSCSSPSSSATSLLHTVSPEPPRPPQQPVPTELSLASITVPLESIKPSNILPVTVYDQHGFRILFHFARDPLPGRSDVLVVVVSMLSTAPQPIRNIVFQSAVPKVMKVKLQPPSGTELPAFNPIVHPSAITQVLLLANPQKEKVRLRYKLTFTMGDQTYNEMGDVDQFPPPETWGSL
Take B6: the binding result in assay [1] is “binds”.

B7: venus-GGA1 (protein, UniProt Q9UJY5 1-639)
chain: MEPAMEPETLEARINRATNPLNKELDWASINGFCEQLNEDFEGPPLATRLLAHKIQSPQEWEAIQALTVLETCMKSCGKRFHDEVGKFRFLNELIKVVSPKYLGSRTSEKVKNKILELLYSWTVGLPEEVKIAEAYQMLKKQGIVKSDPKLPDDTTFPLPPPRPKNVIFEDEEKSKMLARLLKSSHPEDLRAANKLIKEMVQEDQKRMEKISKRVNAIEEVNNNVKLLTEMVMSHSQGGAAAGSSEDLMKELYQRCERMRPTLFRLASDTEDNDEALAEILQANDNLTQVINLYKQLVRGEEVNGDATAGSIPGSTSALLDLSGLDLPPAGTTYPAMPTRPGEQASPEQPSASVSLLDDELMSLGLSDPTPPSGPSLDGTGWNSFQSSDATEPPAPALAQAPSMESRPPAQTSLPASSGLDDLDLLGKTLLQQSLPPESQQVRWEKQQPTPRLTLRDLQNKSSSCSSPSSSATSLLHTVSPEPPRPPQQPVPTELSLASITVPLESIKPSNILPVTVYDQHGFRILFHFARDPLPGRSDVLVVVVSMLSTAPQPIRNIVFQSAVPKVMKVKLQPPSGTELPAFNPIVHPSAITQVLLLANPQKEKVRLRYKLTFTMGDQTYNEMGDVDQFPPPETWGSL
As for B7, the binding result in assay [3] and in assay [4] was “binds” throughout.
